Values marked as one replicate rest on one cluster of the flow cell; about a third of the high ones do not repeat.
tested on: ATP; test: switch fluorescence ratio, 500 uM ATP over buffer (Cy3 cluster intensity, sum of 5 cycles each) (fold (ratio)); higher = stronger signal-on switching upon ATP binding; sequences stand for … in TCGTCGGCAGCGTCAGATGTGTATAAGAGACAGTTTTTTTTTTTTTTTTTTTTTTTTT…TC; details: aptamer strand: ATP DNA aptamer (quencher-CACCTGGGGGAGTATTGCGGAGGAAGG + anchor), 100 nM annealed; ATP concentration: 500 uM; one replicate
Method in brief: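 Cy3-labelled switching-strand clusters on a modified Illumina MiSeq flow-cell were annealed to 100 nM quencher-labelled ATP aptamer, imaged in selection buffer, then imaged after 15 min with 500 uM ATP at 22 °C. Five buffer/ATP cycles ran, with NaOH stripping and re-annealing between them. The fluorescence ratio is summed target-cycle over summed buffer-cycle Cy3 intensity per cluster, averaged per switch-domain sequence. Clusters outside 100-1000 RFU were excluded.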
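Note: ATP exposure 15 min at 22 °C before imaging.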

Sequence | switch fluorescence ratio
CAGTCTACGG | 0.955
CAGTGAAGTT | 1.01
CAGTGATAGG | 1.01
CAGTGCGTAG | 1.03
CAGTGCTGGT | 1
CAGTGGAGAG | 1
CAGTGGAGGG | 1.03
CAGTGGAGGT | 0.989
CAGTGGCGGC | 0.951
CAGTGGCTTA | 1.03
CAGTGGTAGG | 1.03
CAGTTAAAT | 0.989
CAGTTAGAAG | 1.04
CAGTTCATG | 0.957
CAGTTCCCCT | 1.03
CAGTTCCGCG | 1.16
CAGTTGCACT | 0.982
CAGTTGCTTG | 0.996
CAGTTGGAGG | 1.01
CAGTTGGGGA | 1.01
CATAAAATAT | 0.988
CATAAAGGCC | 0.979
CATAAATGGA | 1
CATAAATGGC | 0.962
CATAACAGGG | 1
CATAACCACT | 1.02

Sequence | switch fluorescence ratio
CATAACCGTG | 1.04
CATAACTATC | 0.99
CATAAGAAAT | 0.972
CATAAGCCGA | 0.995
CATAATTAGA | 0.996
CATACAGAGA | 0.924
CATACATGTG | 1.03
CATACCGCTA | 3.99
CATACCTTCG | 2.35
CATACGGGGA | 1.09
CATACTATGT | 1.02
CATACTCCGT | 1.19
CATACTCCTC | 1.5
CATACTCGTT | 0.975
CATACTGTCC | 1.08
CATACTTACC | 1.12
CATAGAGTTC | 0.948
CATAGCGGTC | 1.24
CATAGCTCTC | 1.14
CATAGCTGT | 1.01
CATAGTCTGA | 1.04
CATAGTCTGC | 1.01
CATAGTGGAT | 1.02
CATAGTTACA | 1.01
CATAGTTACT | 1.08
CATAGTTCAC | 1.03

Sequence | switch fluorescence ratio
CATATAAGAT | 1.03
CATATAGCCT | 1.07
CATATATCAG | 0.984
CATATCCGGT | 1.03
CATATCTAAT | 1.02
CATATCTTAA | 0.978
CATATGAC | 1.38
CATATGATGG | 0.991
CATATGTGTG | 0.968
CATATTAGTT | 0.993
CATATTTGTG | 1.02
CATCAACCTA | 1
CATCAACGTA | 0.931
CATCAAGTTT | 0.933
CATCACAAAG | 1.02
CATCACGAAA | 1.21
CATCATGCTC | 1.11
CATCATGGGT | 1.01
CATCATTCA | 0.97
CATCCACTTA | 1.23
CATCCCTTTA | 1.01
CATCCGGCGT | 1.52
CATCCGTGTT | 2.3
CATCCTCATG | 1.22
CATCCTCCGA | 3.4
CATCGCCGTG | 0.993

Sequence | switch fluorescence ratio
CATCGCGTTT | 0.997
CATCGGACC | 1.1
CATCGGATGG | 1.08
CATCGGGTAC | 1.79
CATCGTACAA | 1.16
CATCGTGGGG | 1.01
CATCGTTATT | 0.995
CATCTATCCC | 1.02
CATCTATT | 0.966
CATCTCACAT | 1.01
CATCTCTAGA | 1.05
CATCTGGCT | 1.01
CATCTGTAAG | 1.1
CATCTTGATG | 0.977
CATCTTGGGT | 0.976
CATGAAGTCT | 1.04
CATGAATCGC | 1.05
CATGAGAGAA | 0.986
CATGAGCTCG | 1.04
CATGATATTA | 1.02
CATGATGCGT | 0.982
CATGATTAG | 1.02
CATGCGGGGT | 1.02
CATGCTGAC | 0.975
CATGGCACGG | 1.07
CATGGCCTGT | 1

Sequence | switch fluorescence ratio
CATGGCTACG | 0.987
CATGGGAGTC | 0.994
CATGGGTTT | 1.02
CATGGTCGAT | 1.01
CATGGTGC | 1.17
CATGGTTATA | 1.03
CATGTCATCA | 1.01
CATGTCGACC | 1
CATGTGAGTG | 0.963
CATGTGATCG | 0.989
CATGTGGTG | 0.966
CATGTTGACT | 0.957
CATGTTTAGT | 0.982
CATTAACCTG | 1.02
CATTAGACG | 0.973
CATTATTGCC | 0.989
CATTCAAAAA | 0.96
CATTCATAAC | 1.06
CATTCCAGTC | 1.11
CATTCGAACA | 1.02
CATTCGGACA | 1.06
CATTCTGTTG | 1.02
CATTGCAGTC | 1.12
CATTGCCTGG | 1.09
CATTGCTGGG | 0.99
CATTGGACC | 1.12

Sequence | switch fluorescence ratio
CATTGGTCCC | 1
CATTGGTGAA | 0.968
CATTGTCAGT | 0.992
CATTTAGGTC | 1
CCAAACACTG | 0.997
CCAAAGCGTA | 1.44
CCAAAGTCAT | 1.2
CCAAATTCAG | 0.988
CCAACAAACC | 1.16
CCAACGTGAC | 3.57
CCAAGAACTT | 1.03
CCAAGATAAC | 2.27
CCAAGATCGG | 0.992
CCAAGATTGG | 1.01
CCAAGCAACG | 1.73
CCAAGTACAG | 1.3
CCAAGTCAGC | 1.24
CCAAGTGGGT | 1
CCAATAACT | 1.04
CCAATAAGA | 1.24
CCAATAGTGG | 0.964
CCAATGGTAA | 1.03
CCAATGGTG | 1.28
CCAATGTGTC | 1.08
CCAATTAGGC | 1.04
CCACAAAAA | 1.05

Sequence | switch fluorescence ratio
CCACAACACA | 1.27
CCACAGTAA | 1.92
CCACAGTTTA | 0.995
CCACCACATA | 1.78
CCACCACCCC | 1.31
CCACCTCAAC | 2.39
CCACCTGACC | 1.72
CCACCTGGCA | 1.21
CCACCTGGCT | 1.11
CCACGCGCCC | 2.02
CCACGGAGT | 1
CCACGGTTAT | 1.2
CCACGGTTTT | 1.14
CCACGTAGCT | 1.24
CCACGTCCTG | 1.03
CCACGTCTGG | 0.992
CCACGTGAAT | 1.1
CCACTATTGC | 1.18
CCACTTTCGA | 1.04
CCACTTTTAA | 1.03
CCAGAAAGAG | 1
CCAGACAATT | 1.01
CCAGACGGCA | 1.05
CCAGAGAAAA | 1
CCAGAGACGG | 1.03
CCAGAGTCGG | 1.1

Sequence | switch fluorescence ratio
CCAGCCAATT | 1.23
CCAGCGGCGT | 0.983
CCAGCTGCC | 1.15
CCAGGATCCG | 0.99
CCAGGCCTAA | 0.999
CCAGGGCGTC | 0.971
CCAGGGTCCA | 1.07
CCAGTAGAG | 0.975
CCAGTAGGAA | 1.02
CCAGTGCGGT | 1.04
CCAGTGGGGG | 1.01
CCATAAAAAG | 1.02
CCATAAAATG | 1.02
CCATAAATGA | 1.03
CCATACGGCG | 1.03
CCATACTTAG | 1.03
CCATACTTTG | 0.973
CCATAGGATT | 1.04
CCATATAACC | 0.978

— the supplement of paper PMC10126150
